Molecules are shown by their SMILES. Out of some 310,000 compounds screened, about 14,000 (4.5%) showed an effect of 50% or more. Effects have a minus sign here. This is one part of the list.
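Further: peak tail current of the secondary pulse compared with the same well before compound.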

In this experiment the target is human ether-à-go-go-related gene (hERG) potassium channel (human, UniProt Q12809). In words: primary screen, population patch clamp on CHO cells stably expressing hERG.
human ether-à-go-go-related gene (hERG) potassium channel, sequence (Q12809 whole entry, looked up): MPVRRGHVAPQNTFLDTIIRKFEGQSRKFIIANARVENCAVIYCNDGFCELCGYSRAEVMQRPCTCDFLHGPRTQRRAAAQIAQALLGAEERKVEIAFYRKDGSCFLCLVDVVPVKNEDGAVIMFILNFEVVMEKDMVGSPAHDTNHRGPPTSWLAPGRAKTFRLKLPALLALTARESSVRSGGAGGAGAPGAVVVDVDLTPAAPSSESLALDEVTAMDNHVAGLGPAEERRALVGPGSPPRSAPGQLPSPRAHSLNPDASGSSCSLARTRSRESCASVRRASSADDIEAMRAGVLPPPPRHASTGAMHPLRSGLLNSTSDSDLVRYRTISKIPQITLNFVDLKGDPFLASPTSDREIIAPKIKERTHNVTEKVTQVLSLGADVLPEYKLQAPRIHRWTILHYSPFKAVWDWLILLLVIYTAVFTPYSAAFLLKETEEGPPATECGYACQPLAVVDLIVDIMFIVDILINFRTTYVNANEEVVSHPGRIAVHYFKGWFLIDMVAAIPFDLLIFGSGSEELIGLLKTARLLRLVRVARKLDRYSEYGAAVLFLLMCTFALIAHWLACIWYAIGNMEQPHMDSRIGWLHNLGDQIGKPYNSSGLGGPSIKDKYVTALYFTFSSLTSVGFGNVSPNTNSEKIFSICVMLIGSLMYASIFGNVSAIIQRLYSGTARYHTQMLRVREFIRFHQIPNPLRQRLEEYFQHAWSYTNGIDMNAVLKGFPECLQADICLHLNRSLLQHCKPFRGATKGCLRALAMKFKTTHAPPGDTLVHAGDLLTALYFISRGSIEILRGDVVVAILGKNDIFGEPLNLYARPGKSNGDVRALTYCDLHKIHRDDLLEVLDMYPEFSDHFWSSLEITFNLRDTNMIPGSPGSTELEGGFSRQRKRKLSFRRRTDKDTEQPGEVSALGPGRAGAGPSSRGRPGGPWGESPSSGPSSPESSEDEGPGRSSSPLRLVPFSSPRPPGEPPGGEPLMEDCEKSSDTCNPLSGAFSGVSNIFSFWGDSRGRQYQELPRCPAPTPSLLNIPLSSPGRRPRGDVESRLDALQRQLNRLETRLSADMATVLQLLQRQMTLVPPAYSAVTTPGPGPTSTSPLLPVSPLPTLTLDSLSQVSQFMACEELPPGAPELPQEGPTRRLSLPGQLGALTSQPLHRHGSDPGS
For `O=C(NNS(=O)(=O)c1ccccc1)C(O)(c1ccccc1)c1ccccc1`, the “hERG current change (%, negative = inhibition) at 10uM” value amounted to 7.23%.

As for `C/C(=N/NC(=S)Nc1cccc(C)c1)c1cccc([N+](=O)[O-])c1`, the “hERG current change (%, negative = inhibition) at 10uM” value is -11.4%.

For `O=S(=O)(c1ccccc1)c1cnc(-c2ccccc2)nc1N1CCCC1`, the “hERG current change (%, negative = inhibition) at 10uM” value amounted to 41.8%.

In the case of `Cl.Clc1ccc(CN2CCNCC2)cc1`, the “hERG current change (%, negative = inhibition) at 10uM” value came to 0.541%.

Regarding `N/C(=N\OC(=O)/C=C/c1ccccc1)c1ccncc1`, the “hERG current change (%, negative = inhibition) at 10uM” value is reported as -52.3%.

In the case of `O=C(N/C(=C/c1ccccc1Cl)C(=O)N1CCCCC1)c1ccco1`, the “hERG current change (%, negative = inhibition) at 10uM” value amounted to 13.5%.

`COC(=O)/C=C1\N/C(=N\c2nc(C)cc(C)n2)N(c2ccc(C)cc2)C1=O`: the “hERG current change (%, negative = inhibition) at 10uM” value is reported as -46%.

In the case of `NC(=O)c1ccc(N=Cc2c(O)n(Cc3ccco3)c(=O)[nH]c2=O)cc1`, the “hERG current change (%, negative = inhibition) at 10uM” value is listed as 13.4%.

On to `COc1ccc(NC(=O)C2CCN(c3nc(C)cc(C)n3)CC2)cc1`, for which the “hERG current change (%, negative = inhibition) at 10uM” value is recorded as -2.14%.

`CC(=O)c1c(C)[nH]c(C(=O)CSc2ncnc3sc(-c4ccccc4)cc23)c1C`: the “hERG current change (%, negative = inhibition) at 10uM” value worked out at 1.3%.

As to `CCN(CC)S(=O)(=O)c1ccc(N(C)Cc2cccc(OC)c2OC)nc1`, the “hERG current change (%, negative = inhibition) at 10uM” value is listed as -3.21%.

As to `Cc1cccnc1NC(=O)c1cc2c(=O)oc3ccccc3c2s1`, the “hERG current change (%, negative = inhibition) at 10uM” value is reported as 14.6%.

As for `COCCNC(=O)C(c1ccc(C)o1)N(C(=O)c1snc(C(N)=O)c1N)c1ccc(C)cc1` (stereo not drawn), the “hERG current change (%, negative = inhibition) at 10uM” value is given as -36.4%.

For the molecule `CC(=O)Nc1cccc(-c2nnc3c4ccccc4c(C)nn23)c1`, the “hERG current change (%, negative = inhibition) at 10uM” value was -0.564%.

Regarding `O=C(c1cc2ccccc2oc1=O)N(Cc1cccc(Br)c1)C1CCS(=O)(=O)C1` (stereo not drawn), the “hERG current change (%, negative = inhibition) at 10uM” value was -15.1%.

Consider `CCOc1ccc(C(=O)NCCCCNC(=O)c2ccc(OCC)cc2)cc1`, for which the “hERG current change (%, negative = inhibition) at 10uM” value is given as 21.8%.

In the case of `CCCn1c(SCC(=O)N2CCOCC2)nnc1-c1ccncc1`, the “hERG current change (%, negative = inhibition) at 10uM” value is -0.351%.

In the case of `CCC(C)Sc1nc2c(c(=O)[nH]1)C(c1cccs1)C1=C(CCCC1=O)N2` (stereo not drawn), the “hERG current change (%, negative = inhibition) at 10uM” value was -16.9%.

Take `CCNc1nc(NOC)nc(OCC#N)n1`: the “hERG current change (%, negative = inhibition) at 10uM” value turned out to be 17.9%.

In the case of `CCOc1ccccc1N1CCN(C(=O)[C@@H]2CCCN2C2=NS(=O)(=O)c3ccccc32)CC1`, the “hERG current change (%, negative = inhibition) at 10uM” value is listed as -19.6%.

Consider `Cc1cc(C)nc(Nc2nc(=O)c3ccccc3s2)n1`, for which the “hERG current change (%, negative = inhibition) at 10uM” value turned out to be 2.62%.

As to `O=C(C1=C[C@@H](C2CCCCC2)C[C@@H](OCCCCO)O1)N1CCN(Cc2ccc3c(c2)OCO3)CC1`, the “hERG current change (%, negative = inhibition) at 10uM” value is given as -45.1%.

In the case of `CCC(O)(C#CCN1CCCCC1)CC`, the “hERG current change (%, negative = inhibition) at 10uM” value is -1.39%.

`O=C(COc1ncnc2ccccc12)Nc1ccc(S(=O)(=O)N2CCOCC2)cc1`: the “hERG current change (%, negative = inhibition) at 10uM” value is recorded as 9.94%.

The values are drawn from paper PMC4336329 (PLoS ONE, 2015).
